For 40 compounds, TGI and GI50 results are on record in PubChem BioAssay (NCI).

Each structure is given as a SMILES string. Several values for one entry are separate records, joined by “and”; a condition that tells them apart may be missing. Identical values can stand only once.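 Where inhibition never reached the appropriate level, the endpoint shown equals the highest concentration tested. Otherwise, values were interpolated linearly from a five-concentration, 48-hour dose response in 96-well plates. Abbreviation: GI50, concentration required for 50% inhibition of growth. TGI marks complete inhibition of growth.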 Numbered stars: 1 amine (or outer) side, 2 acyl side, 3 side chain; on linkers, the order of the positions; unused ones are H or OH. Bridge positions count the residues as written; N and C are the ends. Square brackets hold non-standard residues; d marks the D form. Peptide text beside a SMILES is read from it. * marks the point of attachment. Phe(3,5-F2) = N[C@@H](Cc1cc(F)cc(F)c1)C(=O)O; Pro(4R-Me) = C[C@H]1CN[C@H](C(=O)O)C1; aThr = C[C@H](O)[C@H](N)C(=O)O; Pip = O=C(O)[C@@H]1CCCCN1; X8 = Fc1cc(C2CC2)ccc1N*; Abu = CC[C@H](N)C(=O)O; CO = O=C([*:1])[*:2] Some results are limits rather than exact numbers.

The test system of the assay is NCI-H322M lung. In words: NCI anticancer screen, dose series, 48 h.
As for `CC(C)OP(=O)(c1ccccc1)c1ccc2c(c1)OCCOCCOCCOCCO2` (stereo not drawn), the TGI was > 100 µM. Turning to `OC1(c2ccccc2)CCCCCCCCC(O)(c2ccccc2)CCCCCCCC1` (stereo not drawn), the TGI was > 100 µM. Take `Fc1ccc(-c2nnc3sc(-c4cc(Cl)cc(Cl)c4)nn23)cc1Cl`: the GI50 is 32.6 µM and the TGI was > 100 µM. As to `CC(C)(C)OC(=O)NCCCCCCC(=O)Cc1ccccc1`, the TGI is > 100 µM. On the same count and under the same terms, the value for `CCOC(=O)/C=C(/OCC)[C@@H]1C(C(=O)c2ccc(Cl)cc2)[C@H]1/C(=C\C(=O)OCC)OCC` (stereo partly drawn) was > 100 µM; that for `CCC1(O)C(=O)OCc2c1cc1n(c2=O)Cc2cc3ccc(CO)cc3nc2-1` (stereo not drawn) was 36.1 µM; that for `COC(=O)CSC1CC(=O)c2c(Cl)sc(Cl)c21` (stereo not drawn) was > 100 µM.

In the case of `CCOC(=O)N1C(=O)C2C3C=CC(C2C1=O)C1C2C(=O)N(C(=O)OCC)C(=O)C2C31` (stereo not drawn), the TGI is > 100 µM. In the case of `Oc1ccc(-c2cn3ccsc3n2)cc1O`, the GI50 is > 100 µM and the TGI was > 100 µM. As to `COc1ccc(OC)c(NC(=O)c2c(Cl)c(Cl)c(Cl)c(Cl)c2-c2nc3ccccc3[nH]2)c1`, the TGI was > 100 µM.

Regarding `COCCCCCC(=O)CP(=O)(OC)OC`, the TGI was > 100 µM. On the same count and under the same terms, the value for `Clc1ccc(C2=NOC(C3CCCCC3)C2)cc1` (stereo not drawn) was > 100 µM; that for `CCOc1ccc(NC(=O)/C(=N\N)C(C(=O)OC)c2nc3ccc(Cl)cc3[nH]c2=O)cc1` (stereo not drawn) was > 100 µM. Same read-out and setting: the value for `COc1cccc(CC(C)N)c1` (stereo not drawn) was > 100 µM. For `O=C(Nc1ccc(Oc2cccc(Cl)c2)c(Cl)c1)c1cnccn1`, the GI50 is 0.896 µM and the TGI was > 50 µM.

As to `CCC[C@H](N[C@H]1CCc2cc(F)cc(F)c2C1)C(=O)Nc1cn(C(C)(C)CNCC(C)(C)C)cn1`, the GI50 is 32 µM and 42.3 µM; the TGI is > 100 µM. `COc1ccccc1-c1cc(=O)c2ccccc2n1C1CC1` returned a TGI of 4.53 µM. Take `CCN(CC)c1ccc2c(cc1=O)[C@@H](NC(C)=O)CCc1cc(OC)c(OC)c(OC)c1-2`: the GI50 was 0.614 µM and the TGI was > 100 µM. `[N-]=[N+]=Nc1ccc2c(c1)Sc1ccccc1N2CCCCN1CCN(Cc2ccc(C(=O)c3ccccc3)cc2)CC1`: the TGI is > 92.1 µM. Turning to `c1ccc(CSc2nnc3c4c5c(sc4nc(-c4cccnc4)n23)CCCCCC5)cc1`, the GI50 is 5.57 µM and the TGI was determined as 20 µM.

On to `Nc1ncnc2nc(N3CCN(CCO)CC3)[nH]c12`, for which the TGI is > 100 µM. Turning to `COc1cc2c(cc1OC)[Se]c1cc(OC)c(OC)cc1[Se]2`, the GI50 is > 100 µM and the TGI was > 100 µM. In the case of `COc1cc2oc(-c3ccc4c(c3)OCO4)c(OC)c(=O)c2c(OC)c1OC`, the TGI is > 100 µM. Consider `[N-]=[N+]=NCCCn1c2c(c3ccccc3c1=O)C(=O)c1cc(Br)ccc1-2`, for which the GI50 was > 100 µM and the TGI was > 100 µM. In the case of `NC(=O)n1ncc(Cl)c(Cl)c1=O`, the TGI was > 100 µM. Regarding `CN(C)CCNC(=O)c1cc([N+](=O)[O-])cn1C`, the TGI is > 100 µM.

In the case of `CC(=O)/C=C\C1CC2C=CC1C2` (stereo not drawn), the TGI was > 100 µM. For `O=[N+]([O-])c1ccc2scc3c4ccccc4nc-3c2c1`, the GI50 was 1.89 µM and the TGI was 3.85 µM. On the same counts, the results for `Cc1ccc(C)c(COc2cc(NC(=O)c3ccc4c(c3)OCO4)ccc2N(C)S(C)(=O)=O)c1` are 0.43 µM and > 100 µM. In the case of `CSc1nc(=Nc2ccccc2)sn1-c1ccccc1`, the TGI was > 100 µM. Still for that read-out and setting: the value for `Cn1nc(N)nc1N=S(C)(C)=N` was > 100 µM. Turning to `COc1ccc(-c2c(C#N)c(N)nc3c2COc2ccc(F)cc2-3)cc1OC`, the GI50 is 15.7 µM and the TGI was found to be 41.5 µM. For `CN1CCN(CCCCN2c3ccccc3Sc3ccc(C(=O)c4ccccc4)cc32)CC1`, the TGI was determined as 3.35 µM. Same read-out and setting: the result for `COC(=O)C(CCC1CC(OC)N(C(=O)OCc2ccccc2)C1)N=Cc1ccccc1` (stereo not drawn) reads > 100 µM. On the same count and under the same terms, the result for `Cc1cc(-c2c(Br)cc(C(=O)O)n2C)on1` reads > 100 µM. Consider `COc1ccc(C(O)c2cc3c(N)c(C(=O)Nc4cccc(OC)c4)sc3nc2C)cc1` (stereo not drawn), for which the GI50 is > 50 µM and the TGI is > 50 µM. Turning to `CC[C@@H]1NC(=O)[C@@H]2CCCCN2C(=O)[C@@H]2CCCN2C(=O)[C@@H](NC(=O)[C@H](Cc2cc(F)cc(F)c2)NC(=O)Nc2ccc(C3CC3)cc2F)[C@H](C)OC(=O)[C@@H]2C[C@@H](C)CN2C1=O` ({X8-CO}-[Phe(3,5-F2)][aThr]P[Pip][Abu][Pro(4R-Me)]; ester 2-C), the GI50 was 0.361 µM and the TGI stood at 8.27 µM.

Consider `CCOC(=O)Cn1nc2ccc(Nc3c(C)[n+]([O-])c4cc(F)c(OCC)cc4[n+]3[O-])cc2n1`, for which the TGI is > 100 µM. On the same count and under the same terms, the result for `CC1(C(=O)O)CCC(C(=O)O)C(C)(C)O1` (stereo not drawn) reads > 100 µM. As for `COC(=O)C(C/C=C(\C)c1ccccc1)C(C)=O` (stereo not drawn), the TGI was > 100 µM.
